# Assay results from the supplement of paper PMC3334620.
# The full ranking holds about 33,000 sequences; the median of “E-score (-0.5 to 0.5)” is about -0.035, and the highest 2% start at about 0.35. The list shows a part of the results.
# Target: T1, Pdr3 (UniProt P33200)
# T1 sequence: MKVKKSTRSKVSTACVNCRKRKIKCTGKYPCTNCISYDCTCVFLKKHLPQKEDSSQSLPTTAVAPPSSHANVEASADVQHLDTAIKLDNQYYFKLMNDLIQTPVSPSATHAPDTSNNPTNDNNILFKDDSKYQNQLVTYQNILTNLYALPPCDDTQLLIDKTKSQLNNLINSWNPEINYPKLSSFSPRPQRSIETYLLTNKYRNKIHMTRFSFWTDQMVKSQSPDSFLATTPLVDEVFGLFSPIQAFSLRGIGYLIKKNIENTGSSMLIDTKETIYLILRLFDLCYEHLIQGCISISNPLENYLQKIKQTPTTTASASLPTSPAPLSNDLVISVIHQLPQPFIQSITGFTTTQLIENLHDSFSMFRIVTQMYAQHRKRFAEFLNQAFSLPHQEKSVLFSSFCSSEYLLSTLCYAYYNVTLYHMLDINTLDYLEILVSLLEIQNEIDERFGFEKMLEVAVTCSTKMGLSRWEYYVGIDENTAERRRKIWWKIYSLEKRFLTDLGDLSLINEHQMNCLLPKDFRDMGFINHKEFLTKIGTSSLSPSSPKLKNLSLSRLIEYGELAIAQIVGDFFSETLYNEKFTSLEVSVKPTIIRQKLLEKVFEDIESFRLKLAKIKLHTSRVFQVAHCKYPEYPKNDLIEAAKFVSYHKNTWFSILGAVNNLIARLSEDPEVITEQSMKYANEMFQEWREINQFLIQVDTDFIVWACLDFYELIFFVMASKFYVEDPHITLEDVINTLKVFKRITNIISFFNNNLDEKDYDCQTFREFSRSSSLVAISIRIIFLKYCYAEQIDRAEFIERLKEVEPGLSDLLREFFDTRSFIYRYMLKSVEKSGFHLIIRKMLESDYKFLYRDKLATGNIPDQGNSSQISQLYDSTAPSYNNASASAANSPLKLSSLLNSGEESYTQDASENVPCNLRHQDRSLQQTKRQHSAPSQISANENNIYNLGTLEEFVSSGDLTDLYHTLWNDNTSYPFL
# Test: PBM E-score (8-mer binding enrichment) (E-score (-0.5 to 0.5)); higher = stronger / more preferred TF binding; most listed sequences are background and not binding sites
# Settings: protein concentration: 200 nM; construct: GST-full length
# Procedure, shortened: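 The E-score, a modified Wilcoxon-Mann-Whitney statistic, was computed by the Universal PBM Analysis Suite for every ungapped eight-base word pooled with its reverse complement. Scans behind it were normalised with masliner after bound GST-tagged yeast transcription factors were detected with fluorescent anti-GST. The proteins, at about 100-200 nM, had been applied to universal all-10-mer Agilent arrays made double-stranded by primer extension.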
row,Sequence,PBM E-score
1,CACTAATC,0.192
2,GCTACGAC,0.0127
3,TAGAGCCA,-0.316
4,CATGAGTC,-0.101
5,AATGAATC,-0.113
6,CTGGAAAC,-0.0196
7,GCTACACA,-0.266
8,AACGACTC,-0.272
9,CAGCGCGC,0.163
10,ACCGGCAG,0.133
11,ACCCGGTG,0.203
12,CAAATGGC,-0.156
13,ACGATGAA,-0.0151
14,CGTTGGAC,-0.181
15,AAAGAAGA,-0.0922
16,ACGGTGGC,0.0177
17,CCGGTATC,0.213
18,AACGCAGG,-0.0195
19,GACTTGGA,0.0029
20,CGACGAAA,-0.0191
21,CGGTCTGC,0.0736
22,AATTCCAT,0.156
23,ATTGTCCC,0.146
24,GATAACCC,0.0582
25,CATAACAC,-0.167

row,Sequence,PBM E-score
1,CACCATAG,-0.144
2,CCAACCTA,-0.132
3,GGCCAAAA,0.0915
4,AGATGCGG,0.237
5,ACCGTAGA,-0.0364
6,AACCACCG,-0.0124
7,ACGCGGAA,0.407
8,CTATCGAA,-0.171
9,GTACTTCA,0.102
10,AGCACTCA,-0.127
11,GACATTTA,-0.244
12,CATCATCA,-0.0881
13,AAGGGCGG,0.129
14,CGTACACG,-0.145
15,CATGCAAA,0.0294
16,CATCTCAG,-0.0334
17,ACGACACC,0.0551
18,CAGCTGCG,0.0791
19,ATACCCAT,-0.02
20,CTTTGTAC,-0.22
21,AACACGTG,-0.0283
22,ACTGCCAG,-0.0263
23,GGTCTTAA,-0.251
24,CTAGGCCA,-0.0772
25,TCTTGAAA,-0.0175

row,Sequence,PBM E-score
1,CATGACAA,-0.0984
2,GAGAATAC,0.0471
3,CCGCATGA,0.00928
4,CCCCGTCC,0.0739
5,AAGCCGCG,0.301
6,CAGCCAGG,-0.24
7,ACGCCATA,-0.0937
8,CCTCTAGC,-0.247
9,ACACTACT,-0.131
10,CGAATCCC,0.236
11,AAATTCAA,-0.0203
12,CATCCTAA,-0.107
13,TGACTTAA,-0.204
14,ACACAAGC,0.0653
15,AATTCGGG,0.153
16,AAAGCCAG,-0.163
17,CTGAGGAA,-0.108
18,CTGCTATC,0.0994
19,GGTCTTGA,-0.0774
20,AGGGTTAA,-0.202
21,ATAGTATC,0.103
22,AATGGACC,-0.0452
23,AGCAAGTA,-0.149
24,ACCTGATG,-0.126
25,AAAACGCA,-0.0435

row,Sequence,PBM E-score
1,ACATTTGC,-0.0484
2,ACAGAATG,-0.122
3,ACAACCCG,0.223
4,GGCCGCTA,0.125
5,ACGTGCAC,-0.115
6,GCCTGAGC,-0.29
7,ACTACGGG,0.118
8,GTGGCAAA,-0.111
9,ATGGGGGG,-0.122
10,CTCTCTAA,-0.327
11,ATCTCCTA,-0.245
12,CTGAGCCC,-0.114
13,ACTACACC,-0.0598
14,AGGTCTCC,-0.114
15,CAATAGAA,-0.106
16,CTTTCGGA,0.335
17,GAGCATTA,-0.0816
18,AGGAACGC,-0.00648
19,AAGAGGGT,-0.351
20,AGTCAATC,-0.0616
21,AGTGCCTA,-0.186
22,ACTGCGAG,-0.0828
23,AATTTGGG,-0.127
24,ATCCCAAT,-0.121
25,AGAGCGCA,-0.215

row,Sequence,PBM E-score
1,AACTCGAC,0.0587
2,ACCCGATC,0.0757
3,AAGTGCAG,-0.224
4,CACCTAGG,-0.161
5,CTAGCATC,-0.172
6,ACAACTGT,-0.167
7,CGGGACGC,0.292
8,AAGAGCTC,-0.0105
9,GCACGCGC,-0.0476
10,ACGAGATC,0.00781
11,AGGCTTCG,-0.0303
12,ACGCTCCG,0.315
13,GATCTTAA,-0.136
14,ATGTATAG,-0.0329
15,CACCGGCA,0.232
16,CTGCGTCA,-0.163
17,AGTTCGTC,-0.0272
18,ATTGCCTA,-0.262
19,CGCGTCCC,0.129
20,ACTGGGCT,0.0297
21,AGTAATTG,0.0226
22,GTTAAGGA,-0.071
23,CTTGCCTA,-0.34
24,AGACTGAC,-0.192
25,GCTGAAGC,0.0189

row,Sequence,PBM E-score
1,CTCTCTTC,-0.22
2,AAGCTCAA,-0.186
3,AACTTTAG,-0.225
4,AATACACG,-0.14
5,CGAGGCGA,0.0621
6,AGCCCTCC,-0.0658
7,AGGCGGAC,0.211
8,CGACATGC,0.0964
9,AGTTACGA,-0.0164
10,GACACGTC,0.0237
11,CTTCAAGA,-0.23
12,GATATTAA,0.247
13,AGCGAGCG,0.154
14,GATCTTAC,-0.113
15,AGAAGGCT,-0.304
16,GGGAGTGA,0.0692
17,CCTGACCC,-0.0157
18,CAGCGCTA,-0.0686
19,TACGGTAA,0.0846
20,CTAACCAA,0.0145
21,CAGGGTAC,-0.293
22,CAGCCGGC,0.324
23,AACCCGAT,0.205
24,CCGTAGTA,0.0839
25,GGCTTCAA,-0.0558

row,Sequence,PBM E-score
1,ATACTGAT,0.0814
2,GCTGAACA,0.00972
3,CCTCGAAG,-0.0164
4,ATAAAGTC,-0.0657
5,AGGTTATA,-0.155
6,CCTGAAAG,-0.239
7,AGGCAACG,0.00606
8,GATTGGTA,0.104
9,CTTTGTGA,-0.0457
10,CCTTCTCA,-0.0704
11,AGCTTTGA,-0.0592
12,CGGAAGTC,0.421
13,ACCCGGCC,0.285
14,AAAGAGTA,-0.157
15,GCGCGCGC,0.388
16,GGCCCTAC,-0.0753
17,GACCCCTC,-0.154
18,GACCACAC,0.0164
19,GCCAGTGA,-0.163
20,CGCTGAAC,0.0298
21,AACGACGC,-0.129
22,ATCCCTTC,-0.0729
23,ACTCTCCA,-0.229
24,CGCCCAAA,-0.0537
25,CAACCCGC,0.267

row,Sequence,PBM E-score
1,CTTGAACC,-0.0942
2,AATATATT,0.295
3,TCACAGAA,-0.155
4,GACAGCCA,-0.12
5,CCATAAAA,0.0632
6,ACAATATG,0.147
7,ACATCACC,-0.00287
8,AACGCCTG,-0.206
9,CACTTACG,0.121
10,CGTGTAGC,-0.0915
11,CCGAACAG,0.0662
12,ACTCTAAC,0.0388
13,GATGAATC,0.0257
14,ACAAAATA,0.0651
15,AATTCTTG,-0.135
16,AGTCGCAC,-0.0967
17,AGTGAGTG,-0.158
18,CGATTCCC,0.181
19,AGCCGCCC,0.122
20,CTATACTC,0.0145
21,CTCGCGGC,0.171
22,ACTAAGAA,0.106
23,AGGAACAA,0.0344
24,TACATTGA,-0.0689
25,TATGAGGA,-0.232

row,Sequence,PBM E-score
1,AGTTCGGC,-8e-05
2,ACGTTACG,-0.211
3,TATCCCAA,-0.0877
4,ACGACACG,0.0898
5,GTAACCCA,0.0499
6,AGACTTAG,-0.31
7,CATATCAC,-0.132
8,ATTGTAGC,-0.0697
9,AGGTATCA,-0.27
10,ATCTATCC,0.204
11,CCCACTCA,-0.108
12,CCTAGTTA,-0.132
13,CATCGTAG,-0.323
14,ACGCTTAC,-0.143
15,ACGAGTCC,0.00565
16,GGCCATAC,0.108
17,GGACCAAA,0.187
18,CACTAGCG,-0.0368
19,CCAGGGTA,-0.0798
